# Measured values published in the supplement of paper PMC10126150.
# Sequences with one replicate were seen in a single cluster, so their values are uncertain.
# Test system: ATP
# Assay: switch fluorescence ratio, 500 uM ATP over buffer (Cy3 cluster intensity, sum of 5 cycles each) (fold (ratio)); higher = stronger signal-on switching upon ATP binding; sequences stand for … in TCGTCGGCAGCGTCAGATGTGTATAAGAGACAGTTTTTTTTTTTTTTTTTTTTTTTTT…TC
# Settings: aptamer strand: ATP DNA aptamer (quencher-CACCTGGGGGAGTATTGCGGAGGAAGG + anchor), 100 nM annealed; ATP concentration: 500 uM; one replicate
# Outline: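 Between each of five buffer/ATP cycles, the flow-cell was stripped with NaOH and re-annealed. Each cycle imaged Cy3-labelled switching-strand clusters, annealed to 100 nM quencher-labelled ATP aptamer on a modified Illumina MiSeq flow-cell, first in selection buffer and then after 15 min with 500 uM ATP at 22 °C. The fluorescence ratio is summed target-cycle over summed buffer-cycle Cy3 intensity per cluster, averaged per switch-domain sequence, with clusters outside 100-1000 RFU excluded.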
# 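Note: ATP exposure 15 min at 22 °C before imaging.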
row,Sequence,switch fluorescence ratio
1,AACTCGTATA,0.985
2,AACTGATTAA,0.988
3,AACTGCAGCC,1.04
4,AACTGCGGCA,1
5,AACTGCTCAG,1.03
6,AACTGTATA,1.15
7,AACTGTGACT,1.08
8,AACTTAAGAA,1
9,AACTTCGATC,1.03
10,AACTTCGCAG,1.98
11,AACTTCGGGC,1.04
12,AACTTCGTCA,1.06
13,AACTTGCCCA,1.01
14,AACTTGCTTG,0.998
15,AACTTTAGGA,0.983
16,AACTTTGCTA,1.05
17,AACTTTTGTA,0.974
18,AACTTTTTGT,0.982
19,AAGAAATG,1.01
20,AAGAAATTCT,0.992
21,AAGAACGCAT,1.16
22,AAGAAGCCGA,0.995
23,AAGAAGGCCA,0.962
24,AAGAATATTG,1.03
25,AAGAATCATA,1.04
26,AAGAATGTCG,0.898

row,Sequence,switch fluorescence ratio
1,AAGAATTACG,1.08
2,AAGACAAAC,1.08
3,AAGACAGGGC,0.992
4,AAGACCGCTG,0.972
5,AAGACCTATG,0.968
6,AAGACGGGGG,0.983
7,AAGACTAGGG,0.813
8,AAGAGAAAAA,1.02
9,AAGAGAGGAG,1.01
10,AAGAGAGGGC,0.969
11,AAGAGCCCAC,0.981
12,AAGAGCCCGG,1.04
13,AAGAGGCAGC,1.02
14,AAGAGTAAAA,1.01
15,AAGAGTGTCC,1.02
16,AAGATATCAC,1.08
17,AAGATATCTA,0.984
18,AAGATATTTG,0.961
19,AAGATCAGT,1.06
20,AAGATCATCG,1.02
21,AAGATCT,0.951
22,AAGATGAGTT,0.971
23,AAGATGTGGC,1.02
24,AAGCACATAA,1.54
25,AAGCACGGGC,0.985
26,AAGCACGTGA,1.04

row,Sequence,switch fluorescence ratio
1,AAGCACTCGA,1.21
2,AAGCAGTTGA,1
3,AAGCATCCAT,1.02
4,AAGCCAACTG,1.03
5,AAGCCAGCGC,0.927
6,AAGCCCGGTG,2
7,AAGCGAAGGT,1.03
8,AAGCGATCAG,1.04
9,AAGCGGAACT,1.02
10,AAGCGGACCT,1.25
11,AAGCGGTTGA,1.04
12,AAGCGTCATT,1.04
13,AAGCTACCAG,1.11
14,AAGCTCCCAC,1.16
15,AAGCTCGGTC,0.976
16,AAGCTCTACG,1.03
17,AAGCTCTCTA,1.01
18,AAGCTGAGGC,0.998
19,AAGCTGATTA,1.01
20,AAGGAAAGAG,1.01
21,AAGGAACTAA,1.01
22,AAGGAAGCCT,1.01
23,AAGGACCGAC,1.44
24,AAGGAGGTAA,0.976
25,AAGGATATAG,0.951
26,AAGGATTTT,0.97

row,Sequence,switch fluorescence ratio
1,AAGGCACGT,1.05
2,AAGGCGCTGG,0.994
3,AAGGCTCGGG,0.997
4,AAGGCTGCA,1.01
5,AAGGCTGTAT,0.999
6,AAGGGCCCC,1.07
7,AAGGGCTGAG,0.961
8,AAGGGGAACC,0.968
9,AAGGGGCTAC,1.08
10,AAGGGGTGCG,1.11
11,AAGGTATTCT,1.02
12,AAGGTCAAC,0.985
13,AAGGTCAAGA,0.987
14,AAGGTCCCAC,0.982
15,AAGGTCCTCG,1.02
16,AAGGTGAAAT,1.01
17,AAGGTGATT,1.01
18,AAGGTGTTAA,1.01
19,AAGGTTCCAT,0.966
20,AAGGTTCCTA,1.02
21,AAGGTTTCCG,1.09
22,AAGTAACGGC,1.06
23,AAGTAACTTA,1.06
24,AAGTACTAGA,1.24
25,AAGTACTTCT,1.22
26,AAGTAGAAAA,0.994

row,Sequence,switch fluorescence ratio
1,AAGTAGTGTT,1.02
2,AAGTATCACC,1.01
3,AAGTATCTTA,1.03
4,AAGTATGTGC,1.07
5,AAGTATTGGA,1.04
6,AAGTATTTT,1.02
7,AAGTCCTAT,0.997
8,AAGTCGTGCT,0.952
9,AAGTCGTTGA,1.01
10,AAGTCGTTTT,1
11,AAGTCTATTA,1.05
12,AAGTGACCTA,1.09
13,AAGTGACGGG,1.01
14,AAGTGATGT,0.979
15,AAGTGCATAG,1.03
16,AAGTGCGTAA,0.955
17,AAGTGGAACT,0.923
18,AAGTGGCGAC,0.992
19,AAGTGGCTAT,0.989
20,AAGTGGGACA,0.979
21,AAGTGTGGTC,1.02
22,AAGTTACGCA,1.11
23,AAGTTACTGC,0.904
24,AAGTTAGCAG,0.999
25,AAGTTATGGA,1.08
26,AAGTTCCTGG,1.07

row,Sequence,switch fluorescence ratio
1,AAGTTCTAG,0.981
2,AAGTTCTGAC,1.02
3,AAGTTGACTC,1
4,AAGTTGCAAG,0.999
5,AAGTTGCGAA,1.01
6,AAGTTGGACT,1.02
7,AAGTTGTTCC,1.02
8,AAGTTTGGAA,1.05
9,AAGTTTTCGT,0.979
10,AAGTTTTTAA,0.986
11,AATAAAAGCA,1.08
12,AATAACGTCA,1.1
13,AATAACTTGG,1.01
14,AATAAGTTCC,1.1
15,AATAATAGGA,1.03
16,AATACAGGCA,0.969
17,AATACATGAA,0.962
18,AATACGAAAT,1.1
19,AATACGCTAA,1.4
20,AATACGTACC,1.72
21,AATACGTTA,1.17
22,AATAGAGAG,0.994
23,AATAGCCTGG,0.994
24,AATAGCGCAT,1.02
25,AATAGCTCCG,1.05
26,AATAGCTTA,1.06

row,Sequence,switch fluorescence ratio
1,AATAGCTTGC,0.897
2,AATAGGAGGG,0.999
3,AATAGGGTAC,0.966
4,AATAGGTGGT,0.985
5,AATAGTAACT,1.02
6,AATAGTTAAG,0.968
7,AATATAAGGC,1.12
8,AATATACCGA,1.02
9,AATATAGTGA,0.971
10,AATATATACC,1.08
11,AATATCCTAA,0.982
12,AATATCGGGC,1.06
13,AATATTAGC,0.972
14,AATATTATG,0.965
15,AATATTGGG,0.946
16,AATATTTGCC,1.01
17,AATCAAAGTA,0.975
18,AATCAACGTG,1.05
19,AATCAGATTG,0.961
20,AATCAGGAAA,1
21,AATCAGTTAG,1.01
22,AATCAGTTCC,1.05
23,AATCATCTAC,1.03
24,AATCATGTTA,0.996
25,AATCATTCGG,0.998
26,AATCCGGATT,0.993

row,Sequence,switch fluorescence ratio
1,AATCCGTATG,1.03
2,AATCCTATGG,1.03
3,AATCGAACAG,1.07
4,AATCGACGCT,1.33
5,AATCGAGAAT,0.934
6,AATCGAGATA,0.994
7,AATCGAGTCT,1.04
8,AATCGATGCT,0.976
9,AATCGCGGGA,0.999
10,AATCGGACGT,0.945
11,AATCGGTGGC,0.969
12,AATCGTAC,1.08
13,AATCGTAGGT,0.985
14,AATCGTCTAG,1
15,AATCTCGGAC,0.994
16,AATCTGAATA,1.02
17,AATCTGGGCT,0.981
18,AATCTGTAGT,1.03
19,AATCTGTCAA,1.15
